# Publication PMC6212790
# The list shows a part of the results. At the low end of the ranking the order means little.
# Target: T1, GST-Rok-C97-191 (UniProt O34857)
# T1 sequence: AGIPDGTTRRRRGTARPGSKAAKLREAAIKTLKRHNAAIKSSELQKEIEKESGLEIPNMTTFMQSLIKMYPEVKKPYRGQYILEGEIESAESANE
# Experiment: protein binding microarray;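 further: rank score from −0.5 (least bound) to 0.5 (best bound)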
# Conditions: Rok is a gene silencer of Bacillus subtilis; high values mean tight binding; most listed sequences are background and not binding sites; double strand, one strand shown
row,Sequence,binding signal [E-score]
1,GTGGAAGA,-0.235
2,GCGGCCCC,-0.45
3,ACATTATC,0.238
4,CAATGCTG,-0.134
5,AACGTACA,0.0722
6,CCCTTGTC,-0.256
7,TAGGCACA,0.0797
8,GCCTCCCC,-0.175
9,ATACTGAC,0.0391
10,AATTCCGC,0.167
11,GACTCACA,-0.000705
12,ACCGCCTC,-0.191
13,GAGCAGGC,-0.0284
14,AGGTTTAT,0.00738
15,GGCGCCCC,-0.295
16,CCCTGAGG,-0.336
17,GGTGAAAA,-0.1
18,CGCATCTC,-0.104
19,TCCTTCCA,-0.231
20,CACCGAAA,0.0566
21,ACAAGATC,0.0358
22,TCACGTCA,-0.0289
23,GTCCTCAA,-0.017
24,GAGACGGC,-0.336
25,CAGTTATA,0.187

row,Sequence,binding signal [E-score]
1,AGGGCAAC,-0.147
2,CTCCAACC,-0.249
3,ATCCTATG,0.116
4,CAGCAATG,-0.023
5,ATAAAGCA,-0.0166
6,GTGTGGCA,-0.171
7,AGGCACAG,0.00583
8,CCATCCTC,-0.12
9,CGTAGTCC,-0.166
10,ATGTGAGC,-0.062
11,CTACACGC,0.123
12,ACGCATCT,0.0269
13,ATCTATCG,0.313
14,GGATCCAA,-0.0216
15,GGCCGCTA,-0.0135
16,AGCCACCG,-0.102
17,CTATCACA,0.255
18,GAAGGCCA,-0.32
19,CAGCTAGA,0.124
20,GTCCTTGA,-0.241
21,ATCAAACC,-0.141
22,ACATCAGG,0.0495
23,CACTAGAA,0.304
24,AATACAAG,0.245
25,ATGAGAAG,0.175

row,Sequence,binding signal [E-score]
1,AAGCTTCA,-0.115
2,AAATGTTC,0.16
3,ATTTCAAA,0.142
4,TACTTCCA,0.0578
5,CACGTGAG,-0.0703
6,CTGCCGGA,-0.145
7,CTTACTAC,0.171
8,ACTCTAGC,0.015
9,ATGTTTAC,0.00161
10,ATCCATAA,0.0949
11,GACAGACC,-0.153
12,GTCCGACA,0.0838
13,CGAATGAC,0.0266
14,AACCTCGC,-0.129
15,GGGTATTA,0.135
16,CGGGTGCA,-0.0722
17,TGGTTGAA,-0.121
18,CTGTCCTC,-0.0912
19,CTTGGTAA,0.114
20,ATTTCGGA,0.163
21,ACTCCAAA,-0.0283
22,AAAATAAG,0.163
23,AGTGTTAG,0.034
24,AGTGCTTA,0.0679
25,CTGTTTAC,-0.0532

row,Sequence,binding signal [E-score]
1,AGACGCGG,-0.2
2,TATTAGCA,0.168
3,ATACGGGC,-0.0493
4,ATCCCCGG,-0.163
5,AAAAACTT,-0.191
6,AGCTGTGA,0.179
7,ATGTTTCA,0.137
8,ATCGGAAT,0.0863
9,AATCATTC,0.0486
10,ATAGGATA,0.126
11,ACCATAGG,0.13
12,AAAACTAG,0.364
13,TTCCGAAA,0.0206
14,CTCGACTC,0.0309
15,AGTATGGC,0.0943
16,ATCATATA,0.288
17,CGCCCTTA,-0.0937
18,CAAATCGG,-0.0325
19,AAGACACA,-0.0287
20,GGGTGCCA,-0.182
21,CTATTTCC,0.157
22,GAAGTCTC,-0.249
23,CGTGCATC,-0.163
24,CGGCCCCC,-0.402
25,CTTAGGAA,0.0107

row,Sequence,binding signal [E-score]
1,AATGAACT,-0.135
2,AGGCTCAC,-0.169
3,ATCCGACG,-0.0245
4,AGAATTGC,0.124
5,GATAGGGC,-0.00393
6,ACCGGTGG,-0.0505
7,GGTAGTGA,0.144
8,ATGACGGC,-0.0573
9,CTGTGCCA,-0.186
10,CCAAGAGA,-0.11
11,CTGGGTTA,-0.107
12,ACGCTTAC,-0.0511
13,GGCAAGTA,0.0714
14,CTTCCTGA,-0.00749
15,GGGTACCC,-0.389
16,GTGTGGTA,0.242
17,GTGTCACA,0.0159
18,AGAGCGAG,0.0284
19,ACGGAACC,-0.0209
20,ATCCTACA,0.058
21,GACGTAAA,0.0266
22,AAGCTGTA,-0.0302
23,AATGGATG,0.158
24,CGCATCGA,-0.0153
25,CATCACAA,0.149

row,Sequence,binding signal [E-score]
1,AGGTGTGA,-0.101
2,CTCAGACC,-0.229
3,CGCTCTGA,-0.0645
4,GAGACATA,0.0654
5,GATTTACC,0.187
6,ATCGTGGC,-0.0133
7,TACAGGGA,-0.081
8,CAACGTCA,-0.073
9,ATGTGCGA,-0.123
10,CCCGCAAA,-0.076
11,CGGCTATA,0.0143
12,CCATATGG,-0.0199
13,AGGCAACT,0.0567
14,GGAAGGAA,-0.332
15,GCCTCCGC,-0.236
16,TATCGATA,0.303
17,AGCTAGCA,0.176
18,ACAGTCCG,-0.132
19,ACCAGGAT,-0.0854
20,CACTCACC,0.0162
21,TATTTTGA,0.257
22,ATCGGACA,0.109
23,CGGGTTCA,-0.177
24,AGCAAGGG,-0.251
25,CTAGTACA,0.265

row,Sequence,binding signal [E-score]
1,GACACGGC,-0.198
2,ACCGGCCA,-0.162
3,CGAGTAGC,-0.0476
4,CTCGGGTC,-0.157
5,TAGGTCCA,0.013
6,TGTCCTAA,-0.0439
7,AGTAATGC,0.0683
8,AGCAACCG,-0.275
9,CTCCGATC,0.0487
10,CTCTAATA,0.0815
11,GGCAAGGA,-0.176
12,CCATCAAC,-0.105
13,AGATTCAC,0.181
14,CCCCTGGA,-0.287
15,CACCATGA,-0.191
16,ATCCCATA,0.101
17,GAGATGAA,-0.0161
18,AAAGCGCG,-0.142
19,ACGGGAAT,0.0186
20,ATCCCTAC,0.152
21,AACGTCAA,-0.0249
22,GTTTGAAA,-0.0461
23,GCCGTTGA,-0.2
24,GTGTTGCA,0.0799
25,GGGCTGAA,-0.23

row,Sequence,binding signal [E-score]
1,AGTTAGAT,0.196
2,CCCTTCGC,-0.198
3,AAATCGCA,0.0229
4,CTGAACTC,0.0121
5,ATGTGTAC,0.15
6,AAAAGAAA,-0.0747
7,GGAGCTAC,0.0767
8,ACGCCGAA,-0.188
9,GCAAAGTA,0.115
10,AGGGCAGG,-0.171
11,CGTGTGAA,-0.175
12,CGTAATCA,-0.102
13,CGCGCTTA,0.0614
14,AGATAGGA,0.133
15,CGGAACGA,0.123
16,CTAGTGTA,0.178
17,GTAGTGGA,0.179
18,CAGTCTGC,-0.201
19,ATAGGAGA,0.127
20,GCCCTCCA,-0.429
21,CTACTCAC,0.103
22,GAGTGGAC,-0.0716
23,GGTTGGTA,0.0918
24,AGGGGTGG,-0.192
25,TAGACGCA,-0.0795

row,Sequence,binding signal [E-score]
1,ACGCTCCC,-0.211
2,ATCGTGTC,0.0198
3,TAGGAGGA,-0.0185
4,AACCACTC,-0.0933
5,AAAACATG,-0.0172
6,GCGTCGGA,-0.241
7,GACCTGAA,0.026
8,ATAATCGC,0.124
9,AAATCCTC,-0.0816
10,AGATAAAT,0.248
11,TACCTTCA,-0.0353
12,AACGTCAC,-0.0218
13,CGACTTTA,-0.0431
14,ACTGTATC,0.121
15,AAGCTCTC,-0.227
16,CGCGCAGC,-0.442
17,ACTACTAA,0.379
18,CTTGATTC,-0.193
19,CATTCGGC,-0.163
20,GCAGGGAA,-0.262
21,CTATTGCA,0.0247
22,CATCTCCA,0.0694
23,ACTCTGAT,-0.119
24,AACACTCC,0.00647
25,CGCTAATC,0.188

row,Sequence,binding signal [E-score]
1,CGCTTCAC,-0.177
2,GCTATACA,0.176
3,CTTAGCGC,0.0409
4,ACTACAGC,0.247
5,GTCTCCTA,0.0202
6,CTATGAAC,-0.0693
7,CGGACTTA,-0.0748
8,GGCATGTA,0.125
9,ACGGAATG,0.219
10,AAGTCTAC,-0.0949
11,ACTGCTCA,0.00989
12,CTACGCAG,-0.241
13,CTGACGTA,0.044
14,CGTTCCGC,-0.323
15,ATGCGATA,0.0838
16,CATCCCGA,0.0422
17,CTTGTAGC,0.0103
18,CCTCCGAG,-0.182
19,AAAGGGGA,-0.23
20,CTTTTCCA,0.0149
21,AGGTTAAG,-0.0584
22,CGGGTGGC,-0.204
23,GCATACGC,-0.212
24,CAGGTAAA,0.0575
25,AATCGAGA,0.0147

row,Sequence,binding signal [E-score]
1,GTGTCAAA,-0.0452
2,ACTCAAGG,0.117
3,CACGCCTC,-0.231
4,CCGGGGAG,-0.254
5,AACTAGTT,0.439
6,GACATCGA,-0.111
7,ATGGATTA,0.0887
8,ATATAGGG,-0.00212
9,ATCTAAGC,0.12
10,GTTTCGCA,-0.113
11,ACTGAATG,-0.0429
12,GGTCTAAA,-0.00415
13,GGCTTCCA,-0.0948
14,GGATACTA,0.167
15,AACTAGAG,0.0733
16,CGCGCATA,0.0658
17,ACTCTGGC,-0.2
18,CCGCTCGC,-0.252
19,CATCTGCA,-0.114
20,GAAGGACC,-0.092
21,CAGTGGGA,-0.131
22,CTATGCAC,0.207
23,CCAGAAAC,-0.169
24,AAACCAGG,-0.222
25,CTAGTTCC,0.262

row,Sequence,binding signal [E-score]
1,AAAGAATG,0.0996
2,AAGAGTTA,0.118
3,CGGCAGAG,-0.361
4,ATTTCTGC,0.157
5,GGATCCAC,-0.0964
6,GCCACTGA,-0.0904
7,ACAAATAC,0.266
8,GATGCGGA,-0.176
9,AATTCACA,0.147
10,ACACCCGG,-0.122
11,ATGTTGTA,0.13
12,AGAATTCG,0.256
13,GCTCATTA,-0.0287
14,CAAACAGA,0.0236
15,TCATGGGA,-0.0486
16,AACGGGCC,-0.376
17,CCTTCCCC,-0.184
18,GGTACCGA,0.00663
19,ATTGAGGA,0.0306
20,CATCCTCG,-0.158
21,ACTCTACC,-0.0607
22,ATACTCTG,-0.0409
23,AGAGAAGC,0.0741
24,AAGCGAAC,-0.218
25,CTGTTAGA,0.0073

row,Sequence,binding signal [E-score]
1,ACCAGCCC,-0.172
2,CAACAGGC,-0.102
3,GCTGGCAA,-0.071
4,AAGCAGTG,-0.215
5,GTGACTAA,0.0707
6,CTGCCAAA,-0.000971
7,ATGCGTCG,0.132
8,CGGGACCC,-0.307
9,TCGTTAAA,0.197
10,AGGCTGTC,-0.235
11,AGCGAACC,-0.2
12,CATTATCC,0.0456
13,CTGACACC,-0.29
14,CGCCAACA,-0.132
15,CTGCGAAG,-0.0246
16,GACATAGC,-0.0609
17,GCAAGCAC,-0.0636
18,CGCATGTC,-0.072
19,AGAGTACC,-0.0388
20,CGCTTCAG,-0.148
21,ATGCGACG,0.0742
22,CGGACAGA,0.00926
23,AGGACGCA,-0.134
24,GCTTAACC,-0.121
25,CAATAAGC,-0.0187

row,Sequence,binding signal [E-score]
1,ATCGCCCG,-0.21
2,CCGCCCGC,-0.28
3,ACCTCAGA,-0.177
4,TTTGAAAA,-0.0186
5,CCAGGGCC,-0.275
6,CGCGACTC,-0.19
7,CCAATGTC,-0.00982
8,ACTGACGC,-0.161
9,ACATGCTG,-0.04
10,GTGACACA,0.0273
11,CGCATGCG,-0.379
12,CTGACAAA,-0.0915
13,ACGTTGTG,-0.000385
14,ACATGGCG,-0.013
15,CCAAAAAG,-0.108
16,CGTTCTGA,-0.0815
17,CACTTCGC,-0.103
18,AGTTCTAT,0.242
19,AGGCGTGA,-0.173
